Test results taken from publication PMC6919601, “Identification of Plasmodium dipeptidyl aminopeptidase allosteric inhibitors by high throughput screening” (PLoS ONE, 2019).
The campaign covered roughly 110,000 compounds. About 230 (0.21%) showed an effect of 50% or more. Some of the results follow.

molecular target: DPAP1 (Plasmodium falciparum, UniProt Q8IIJ9); experiment: primary screen, percent inhibition; read by cleavage of a fluorogenic dipeptide substrate; higher = more effect of the substance; set-up: species or system P. falciparum D10 trophozoite lysates; single well
Sequence (Q8IIJ9 whole entry, looked up): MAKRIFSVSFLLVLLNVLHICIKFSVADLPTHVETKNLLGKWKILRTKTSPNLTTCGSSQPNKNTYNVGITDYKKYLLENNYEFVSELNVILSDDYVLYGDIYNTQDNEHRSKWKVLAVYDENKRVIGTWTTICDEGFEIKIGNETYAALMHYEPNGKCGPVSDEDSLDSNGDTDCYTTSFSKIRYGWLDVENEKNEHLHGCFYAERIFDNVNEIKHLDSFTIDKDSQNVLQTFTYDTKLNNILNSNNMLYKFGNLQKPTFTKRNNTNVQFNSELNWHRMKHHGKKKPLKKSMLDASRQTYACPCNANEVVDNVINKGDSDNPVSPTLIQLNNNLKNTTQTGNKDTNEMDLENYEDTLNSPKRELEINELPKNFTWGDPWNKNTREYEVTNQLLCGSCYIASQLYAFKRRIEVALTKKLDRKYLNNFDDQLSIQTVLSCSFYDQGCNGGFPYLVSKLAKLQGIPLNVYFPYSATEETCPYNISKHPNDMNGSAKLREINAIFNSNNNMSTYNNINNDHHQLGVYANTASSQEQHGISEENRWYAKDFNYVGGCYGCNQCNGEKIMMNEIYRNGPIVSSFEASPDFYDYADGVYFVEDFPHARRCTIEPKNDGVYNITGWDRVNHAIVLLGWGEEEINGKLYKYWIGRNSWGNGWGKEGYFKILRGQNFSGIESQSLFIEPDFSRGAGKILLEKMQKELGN
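Note: 30 min substrate incubation versus DMSO and 10 µM JCP410 controls.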

Compound	% Inhibition @ 10 uM
CCCCN(CC)C(=O)CSc1nc2ccsc2c(=O)n1CC1CCC(C(=O)O)CC1 (stereo not shown)	4.02%
Clc1ccc(-c2csc(Nc3ncccn3)n2)cc1	1.92%
CCCc1ccc(OCc2ccc(C(=O)Nc3nccs3)cc2)cc1	0.413%
COc1cc(C)c(S(=O)(=O)N2CCN=C2c2ccccc2)cc1C	-3.5%
COCCCNC(=O)c1cc2c(=O)n3cc(C)ccc3nc2n(Cc2cccnc2)c1=N	0.279%
COc1ccc(-c2nnc(NC(=O)c3ccco3)s2)cc1OC	2.3%
CCN1CCN(c2ncnc3scc(-c4ccc(OC)cc4)c23)CC1	1.57%
Nc1ccn(-c2ccc(F)cc2)c(=O)c1	0.266%
CC1=C(C(N)=O)C(c2cccc(F)c2)n2ncnc2N1 (stereo not shown)	-0.403%
COCC(C)NC(=O)C1=CC(c2ccc(OC)c(OC)c2)=NS(=O)(=O)N1C (stereo not shown)	-6.59%
CS(=O)(=O)N1CCC(C(=O)N2CCN(C(c3ccccc3)c3ccccc3)CC2)CC1	2.84%
CCN(CC)C(=O)C1CCCN(Cc2ccc3c(c2)OCO3)C1 (stereo not shown)	1.55%
Cc1ccsc1S(=O)(=O)c1ccccc1	-4.01%
Cc1cccc(CNc2nc3nc4c(c(O)n3n2)CCC4)c1	-6.04%
COc1cc(C(=O)NCC(=O)O)cc(OC)c1OC	5.02%
CCc1cccc(CC)c1NC(=O)Cn1cnc2c(Cl)cc(Cl)cc2c1=O	1.34%
CC(C)CC(=O)N1CCC(c2c[nH]c3ccccc23)(c2c[nH]c3ccccc23)CC1	10%
Cc1ccc(S(=O)(=O)c2nnn3c2nc(N2CCCC(C)C2)c2ccccc23)cc1 (stereo not shown)	0.291%
COc1ccc(NC(=O)c2c(-c3c(F)cccc3Cl)noc2C)cc1	-0.469%
CC1(C)CC(=O)C2=C(C1)OC(N)=C(C#N)C2c1ccc(OC(F)F)cc1 (stereo not shown)	-0.941%
O=C(O)c1cc2ccccc2cc1N1C(=O)c2ccccc2C1=O	2.68%
O=C(N/C(=C\c1ccccc1)C(=O)N1CCCCC1)c1ccc(Br)o1	0.746%
Cc1ccccc1Cn1c2ccccc2c2cnn(CC(=O)NCCN3CCOCC3)c(=O)c21	-3.35%
CCN(c1ccccc1)S(=O)(=O)c1ccc(NC(=O)COc2ccccc2)cc1	3.21%
CCOC(=O)c1c(NC(=O)c2cccc(F)c2)sc2c1CCCC2	1.12%

Compound	% Inhibition @ 10 uM
CCN(Cc1ccccc1)C(=O)Cn1ncc2c(=O)oc3ccccc3c21	-3.06%
Cc1ccccc1Cn1c(CCNC(=O)c2ccccc2)nc2ccccc21	-5.77%
c1ccc(CN2CCN(c3ncnc4c3nc3n4CCCCC3)CC2)cc1	-1.07%
COc1ccc(CCNC(=O)CSc2nc3cccnc3[nH]2)c(OC)c1	3.24%
COc1ccccc1-c1cccc(C(=O)N[C@@H](CC(C)C)C(=O)NCC#N)c1	-3.04%
Nc1c(-c2nc(-c3ccc4c(c3)OCO4)no2)nnn1-c1ccc(F)c(Cl)c1	2.45%
N#CC1=C(N)OC2=C(C(=O)CCC2)C1c1cccc(O)c1 (stereo not shown)	-1.8%
COc1ccc(C2CC(=O)N3CN(Cc4ccccc4)CSC3=C2C#N)cc1OC (stereo not shown)	6.73%
COc1ccc(CNC(=O)C(C)n2ccc3cc(S(=O)(=O)N4CCCC4)ccc32)c(OC)c1 (stereo not shown)	2.48%
Nc1c(C(=O)c2ccccc2)sc2nc3c(cc12)CCC3	-4.61%
COc1ccc(C2C3=C(O)CCCC3=Nc3[nH]nc(-c4ccc(Cl)cc4)c32)cc1OC (stereo not shown)	0.244%
CCc1c(O)cc2n(c1=O)-c1ccc(Cl)cc1C2(C)C	-1.07%
CCOc1ccc(-c2cc(C(=O)O)c3c(-c4ccc(C)cc4)[nH]nc3n2)cc1	-0.901%
Cc1ccc(/C=C2/N=C(c3ccc(C)c(C)c3)OC2=O)o1	0.997%
COc1ccc(CCNC(=O)CCS(=O)(=O)c2ccc(Br)s2)cc1OC	0.0654%
CCc1cccc(C)c1NC(=O)CN(c1ccc(C)cc1C)S(C)(=O)=O	11.5%
O=C(CSc1nc2ccccc2nc1N1CCCCC1)NCc1ccccc1Cl	3.36%
O=C(Nc1ccc2c(c1)OCO2)c1ccc(Oc2ccccc2)cc1	4.57%
Cc1[nH]c2ccccc2c1CCN1C(=O)OC2(CCCCC2)C1(C)O (stereo not shown)	-0.958%
Cc1c(N=C(N)N)c(=O)n(-c2ccccc2)n1C	4.65%
COc1ccc(CN2CCN(c3ccccc3C)CC2)cc1O	-1.77%
CC1(C)CC2=NC3=C(C(=O)CC(C)(C)C3)C(c3cccs3)C2=C(O)C1 (stereo not shown)	-3.19%
O=C(c1cc(-c2ccc3c(c2)OCO3)nc2ccccc12)N1CCCC1	2.09%
CC(=O)C(Sc1nnc(-c2c[nH]c3ccccc23)n1C)C(C)=O	5.77%
O=C1CC(c2ccccc2)CC(=O)C1=CNc1ccccc1Oc1ccccc1 (stereo not shown)	2.45%

Compound	% Inhibition @ 10 uM
CCc1ccc2c(c1)C(O)(CC(=O)c1ccccc1)C(=O)N2 (stereo not shown)	-7.9%
COc1cccc(C2=NOC(C(=O)Nc3cccnc3Cl)C2)c1OC (stereo not shown)	-2.16%
Clc1ccccc1N1CCN(Cc2ccc(Br)s2)CC1	1.48%
O=C(CSCc1ccc(F)cc1)NCc1cccs1	-1.21%
CC1CCCN(C(=O)CSc2nc3ccsc3c(=O)n2Cc2ccccc2Cl)C1 (stereo not shown)	-4.58%
COc1cccc(-c2cn3c(n2)sc2cc(C(=O)NCc4ccccn4)ccc23)c1	5.11%
CCc1noc2c1/C(=N\O)CC(C)(C)C2	-0.807%
COCCN1C(=O)c2oc3cc(C)c(C)cc3c(=O)c2C1c1ccc(C(=O)OC)cc1 (stereo not shown)	0.628%
N#Cc1nc(/C=C/c2ccc(F)cc2)oc1NCc1ccco1	-4.39%
CN1CCN(C(=O)c2ccc(Cl)c(Cl)c2)CC1	6.18%
Cc1cc(C)cc(N(CC(=O)Nc2ccccc2C(=O)N2CCOCC2)S(C)(=O)=O)c1	1.71%
COc1ccc(C(=O)NC2=NCCS2)cc1OC	17.4%
CC(C)(C)c1cc(CO)c(O)c(CO)c1	-2.77%
COc1cccc(C2CC(c3ccc(Br)cc3)=NN2C(=O)c2ccncc2)c1OC (stereo not shown)	0.131%
Cc1c(Cl)cccc1N(CC(=O)Nc1ccccc1C(=O)O)S(C)(=O)=O	-10.2%
Cc1cccc(OCCNC(=O)CCc2ccccc2)c1	-0.303%
CC(C)NCC(O)COc1ccc2ccccc2c1 (stereo not shown)	2.86%
Cc1ccc(NC(=O)CC2Nc3ccccc3NC2=O)c(C)c1 (stereo not shown)	3.24%
O=C(CSc1nc2ccccc2nc1N1CCOCC1)N1CCN(c2ccccn2)CC1	-3.53%
CCC(C)(C)C1CCc2c(sc(NC(=O)c3ccc(C)o3)c2C(N)=O)C1 (stereo not shown)	-3.04%
Cc1cc(C)nc(NS(=O)(=O)c2ccc(NC(=O)CCc3ccccc3)cc2)n1	5.46%
CCCn1c2ccccc2c2cnn(CC(=O)N3CCN(C(=O)c4ccco4)CC3)c(=O)c21	-3.22%
COc1cc(OC)c2c(C)c(CC(=O)NCc3ccc4c(c3)OCO4)c(=O)oc2c1	5.68%
CCOC(=O)C1=NNC2C(=O)N(c3ccc(F)cc3)C(=O)C12 (stereo not shown)	-5.48%
Cc1cccc(C)c1NC(=O)c1cnn(-c2ccccc2)c1C	-2.74%

Compound	% Inhibition @ 10 uM
CCN(CC)C(=O)C1CCCN(C(=O)CN2C(=O)c3ccccc3C2=O)C1 (stereo not shown)	-1.46%
CCCCNC(=O)c1cc(-c2ccc(C)o2)nc2ccccc12	7.03%
CCc1ccc(C(=O)c2cnc3cc4c(cc3c2N2CCCC2)OCO4)cc1	-4.68%
Cc1ccc2c(c1)-c1onc(C(=O)N(Cc3ccco3)C3CCCCC3)c1CO2	-0.539%
c1cncc(Nc2nc(-c3cccs3)cs2)c1	3.38%
COc1ccc(/C=C/C2=NN(c3ccc(Br)cc3Br)C(c3ccc(OC)cc3)C2)cc1 (stereo not shown)	-6.11%
CC1(C)Cc2ccccc2C(N)=C1C#N	0.827%
COc1ccc(OC)c(S(=O)(=O)/N=C2\C=C3N(CCO)CCOC3(O)c3ccccc32)c1 (stereo not shown)	0.0539%
O=C(CCn1c(=S)[nH]c2c([nH]c3ccccc32)c1=O)NCc1ccccc1	-1.29%
Cc1ccc2[nH]c3c(c2c1)CCC3C(N)=O (stereo not shown)	1.57%
CC(Oc1ccccc1F)C(=O)NC1CCS(=O)(=O)C1 (stereo not shown)	3.57%
COc1ccc(-c2ccc(CNCCNC(=O)c3nonc3N)o2)cc1Cl	0.00706%
COc1ccc(CCN2CC(C(=O)NC3CCCCC3)CC2=O)cc1OC (stereo not shown)	1.62%
CSc1ncccc1C(=O)NCCc1ccccc1F	0.238%
CCSC1=NSC2=NC(=O)/C(=C\c3c(C)[nH]c4ccccc34)C(=N)N12	4.79%
Cc1ccc(CN2CC(C(=O)O)CC2=O)cc1 (stereo not shown)	0.121%
COc1ccc(/C=C/C(=O)c2ccc(C)o2)cc1	7.24%
COc1ccccc1CNC(=O)c1ccc2snnc2c1	-0.0235%
CC(=O)c1cccc(NC(=O)COc2ccc(Cl)cc2Cl)c1	-5.46%
O=C(CN1N=C(c2ccc(Cl)cc2)CCC1=O)NCCN1CCN(Cc2ccccc2)CC1	8.32%
CSC1=C(C#N)C(c2cccc3ccccc23)CC(=O)N1 (stereo not shown)	6.95%
CC(C)C[C@H](NC(=O)c1ccc(N(C)c2nc(-c3ccncc3)cs2)cc1)C(=O)NCC#N	4.63%
O=C(c1ccc([N+](=O)[O-])cc1)N1CCN(c2ccccc2)CC1	-1.22%
CCCc1nc2c([nH]1)OC(N)=C(C#N)C2c1cccnc1 (stereo not shown)	-2.53%
COC(=O)c1cc(C)c(-c2ccccc2)[nH]1	-1.75%
